{
  "source": "PubChem BioAssay AID504339",
  "about": "(National Center for Advancing Translational Sciences (NCATS), 2011)",
  "note": "Hit rate of the full screen: of about 390,000 compounds, about 17,000 (4.4%) were called active. This list was built around the results that the source calls inconclusive (neither active nor inactive); the mix of calls is not that of the screen. Calls follow the shape of the dose curve; as a rule, active = well fitted inhibition curve with a large enough effect; inconclusive = small, poorly fitted or top-dose-only effect; inactive = no such curve, though single readings can be large or run the other way. A potency beside an inconclusive call is a rough fit, not a confirmed value. Potency is read from the fitted curve at half-maximal effect; tags tell the direction and shape of the fitted curve.",
  "data": [
    {"molecular_target": "Lysine-specific demethylase 4A (Homo sapiens) (UniProt O75164)", "sequence (O75164 whole entry, looked up, the tested form may be a part)": "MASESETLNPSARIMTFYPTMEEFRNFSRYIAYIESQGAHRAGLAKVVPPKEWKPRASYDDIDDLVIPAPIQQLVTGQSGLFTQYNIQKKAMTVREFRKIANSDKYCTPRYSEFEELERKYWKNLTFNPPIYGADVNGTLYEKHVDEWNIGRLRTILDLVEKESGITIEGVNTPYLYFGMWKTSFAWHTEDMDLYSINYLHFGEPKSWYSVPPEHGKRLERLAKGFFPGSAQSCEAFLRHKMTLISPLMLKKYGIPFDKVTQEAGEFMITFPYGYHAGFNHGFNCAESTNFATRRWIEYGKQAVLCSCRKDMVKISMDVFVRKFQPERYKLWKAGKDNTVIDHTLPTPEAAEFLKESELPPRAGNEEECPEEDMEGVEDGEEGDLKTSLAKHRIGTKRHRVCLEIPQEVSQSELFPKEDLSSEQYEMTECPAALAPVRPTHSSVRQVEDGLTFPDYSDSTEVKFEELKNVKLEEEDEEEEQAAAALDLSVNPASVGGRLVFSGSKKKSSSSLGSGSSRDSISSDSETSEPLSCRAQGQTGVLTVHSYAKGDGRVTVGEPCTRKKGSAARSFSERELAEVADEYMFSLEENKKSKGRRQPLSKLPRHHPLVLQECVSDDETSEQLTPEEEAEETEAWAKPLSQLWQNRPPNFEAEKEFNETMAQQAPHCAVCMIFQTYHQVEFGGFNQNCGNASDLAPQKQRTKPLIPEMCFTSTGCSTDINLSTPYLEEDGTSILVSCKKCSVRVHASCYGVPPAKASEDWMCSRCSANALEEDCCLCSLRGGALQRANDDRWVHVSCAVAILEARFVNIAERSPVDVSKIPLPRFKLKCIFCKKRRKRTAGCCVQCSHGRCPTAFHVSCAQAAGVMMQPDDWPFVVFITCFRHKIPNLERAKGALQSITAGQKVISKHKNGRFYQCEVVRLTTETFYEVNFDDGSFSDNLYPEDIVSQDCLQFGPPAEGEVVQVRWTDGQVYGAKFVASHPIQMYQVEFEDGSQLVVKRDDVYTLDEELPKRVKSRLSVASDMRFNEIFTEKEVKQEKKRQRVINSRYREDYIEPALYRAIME", "assay": "qHTS Assay for Inhibitors of JMJD2A-Tudor Domain; also: nearly all actives have a fitted effect of over 50% in size", "conditions": "AlphaScreen JMJD2A-Tudor / H3K4me3 peptide binding; series mostly up to 114 µM", "values": [
      {"smiles": "Cc1cn[nH]c1", "Potency": "inconclusive: 89.1 µM [inhibitor, single point]"},
      {"smiles": "O=C(/C=C/c1ccc(O)c(O)c1)c1ccc(S(=O)(=O)N2CCCCCC2)cc1", "Potency": "inconclusive: 8.91 µM [inhibitor, full curve]"},
      {"smiles": "Clc1ccc(/C=N/Nc2ncnc3ccccc23)cc1Cl", "Potency": "inconclusive: 25.1 µM [inhibitor, full curve]"},
      {"smiles": "O=C(Nc1ccc(F)c(Cl)c1)Nc1ccc(Cl)cn1", "Potency": "inconclusive: 25.1 µM [inhibitor, partial curve]"},
      {"smiles": "O=C(CCc1nnc2ccc(NCc3ccco3)nn12)N1CCN(c2ccccc2)CC1", "Potency": "active: 39.8 µM"},
      {"smiles": "Cn1c2ccccc2c(=O)c2ccc(C#Cc3ccccn3)cc21", "Potency": "inconclusive: 79.4 µM [inhibitor, partial curve]"},
      {"smiles": "Cc1ccc(S(=O)(=O)c2ccc([N+](=O)[O-])o2)cc1", "Potency": "inconclusive: 56.2 µM [inhibitor, partial curve]"},
      {"smiles": "CC1=NN(C(N)=S)C(=O)C1N=Nc1cc(Cl)ccc1Cl", "note": "(centres undefined)", "Potency": "inconclusive: 50.1 µM [inhibitor, partial curve]"},
      {"smiles": "c1ccc(-c2csc(N3CCSCC3)n2)cc1", "Potency": "inactive"},
      {"smiles": "O=C(COC(=O)CC12CC3CC(CC(Br)(C3)C1)C2)NC(=O)NCc1ccco1", "Potency": "inconclusive: 50.1 µM [inhibitor, partial curve]"},
      {"smiles": "COc1ccc(Nc2cc(C(=O)NCCCN3CCN(c4ccc(OC)cc4)CC3)c3ccccc3n2)cc1", "Potency": "active: 22.4 µM"},
      {"smiles": "CC1CC(C)CN(CC(=O)c2c[nH]c3ccccc23)C1", "note": "(centres undefined)", "Potency": "inactive"},
      {"smiles": "CN(C)c1ccc(S(=O)(=O)NCC(=O)N2CCN(S(=O)(=O)c3cccc(F)c3)CC2)cc1[N+](=O)[O-]", "Potency": "inactive"},
      {"smiles": "COc1ccccc1Nc1nnc(SCc2nnc(-c3cc(OC)c(OC)c(OC)c3)o2)s1", "Potency": "inconclusive: 89.1 µM [inhibitor, single point]"},
      {"smiles": "CC(Oc1ccc(Cl)cc1Cl)C(=O)Nc1ccc(N2CCN(C)CC2)cc1", "note": "(centres undefined)", "Potency": "inconclusive: 35.5 µM [inhibitor, partial curve]"},
      {"smiles": "O=[N+]([O-])c1ccc(Cl)c(/C=N/n2c(C3CCCCC3)n[nH]c2=S)c1", "Potency": "inconclusive: 100 µM [inhibitor, single point]"},
      {"smiles": "O=C1c2ccccc2N2C(=O)c3ccccc3C2N1O", "note": "(centres undefined)", "Potency": "inconclusive: 89.1 µM [inhibitor, single point]"},
      {"smiles": "CCOc1ccc(NCc2cc3c(C(C)(C)C)nn(-c4ccccc4)c3[nH]c2=O)cc1", "Potency": "active: 50.1 µM"},
      {"smiles": "Cc1cc(C(=O)NC(=S)Nc2cccc(NC(=O)C(C)C)c2)ccc1[N+](=O)[O-]", "Potency": "inconclusive: 89.1 µM [inhibitor, single point]"},
      {"smiles": "COc1ccc(C2(CNC(=O)c3cccc([N+](=O)[O-])c3)CCOCC2)cc1OC", "Potency": "active: 56.2 µM"},
      {"smiles": "CCOC(=O)c1sc(=S)n(-c2cccc(OC)c2)c1N", "Potency": "inconclusive: 56.2 µM [inhibitor, partial curve]"},
      {"smiles": "COc1cccc(NC(=O)CSCc2cc(=O)n3ccsc3n2)c1", "Potency": "inactive"},
      {"smiles": "O=C(NCc1ccco1)C12CN(Cc3ccccc3)CC1C(c1cccc([N+](=O)[O-])c1)=NO2", "note": "(centres undefined)", "Potency": "inconclusive: 11.2 µM [inhibitor, full curve]"},
      {"smiles": "O=S(=O)(c1ccc(Cl)cc1)c1nc(-c2ccco2)oc1N1CCCCC1", "Potency": "inconclusive: 44.7 µM [inhibitor, partial curve]"},
      {"smiles": "Oc1ccc(-c2nc3ncccn3c2Nc2ccc3c(c2)OCO3)cc1", "Potency": "inconclusive: 56.2 µM [inhibitor, partial curve]"},
      {"smiles": "O=C(N/N=C/c1ccccn1)c1cccs1", "Potency": "inconclusive: 100 µM [inhibitor, single point]"},
      {"smiles": "C(=N\\n1cnnc1)/c1cccn1-c1ccccc1", "Potency": "inconclusive: 89.1 µM [inhibitor, partial curve]"},
      {"smiles": "Cc1ccc(N=C2NC(=O)/C(=C/c3cccn3C)S2)c(C)c1", "Potency": "inconclusive: 22.4 µM [inhibitor, full curve]"},
      {"smiles": "CC(NCC(O)COc1ccccc1)C1COc2ccccc2O1", "note": "(centres undefined)", "Potency": "inactive"},
      {"smiles": "O=[N+]([O-])c1cccc(N=Nc2ccc(O)cc2O)c1", "Potency": "inconclusive: 44.7 µM [inhibitor, partial curve]"},
      {"smiles": "COc1ccc(C2N(Cc3ccccc3)C(=O)c3ccccc3N2C)cc1COc1ccc(NC(C)=O)cc1", "note": "(centres undefined)", "Potency": "inconclusive: 56.2 µM [inhibitor, partial curve]"},
      {"smiles": "COc1cc(CNc2ccc3c(c2)OCCO3)ccc1OCC(N)=O", "Potency": "inconclusive: 70.8 µM [inhibitor, partial curve, poor fit]"},
      {"smiles": "COc1ccc(OC)c(NCc2nnc(-c3ccccc3)o2)c1", "Potency": "inconclusive: 63.1 µM [inhibitor, partial curve, poor fit]"},
      {"smiles": "O=[N+]([O-])c1ccc(C(O)C[n+]2ccccc2)cc1", "note": "(centres undefined)", "Potency": "inconclusive: 39.8 µM [inhibitor, single point]"},
      {"smiles": "COc1ccc(C)cc1NC(=O)CCS(=O)(=O)c1cc2c3c(c1)CCN3C(=O)CC2", "Potency": "active: 31.6 µM"},
      {"smiles": "CC1S/C(=C(\\C#N)C(=O)NCc2ccco2)N(Cc2ccco2)C1=O", "note": "(centres undefined)", "Potency": "inconclusive: 79.4 µM [inhibitor, partial curve]"},
      {"smiles": "O=C(CN1C(=O)CCSc2ccccc21)Nc1ccc2c(c1)OCO2", "Potency": "inactive"},
      {"smiles": "O=C(NNS(=O)(=O)c1ccccc1[N+](=O)[O-])c1cccc(Cl)c1", "Potency": "active: 28.2 µM"},
      {"smiles": "NC1=C(Br)C(=O)c2ncccc2C1=O", "Potency": "inconclusive: 89.1 µM [inhibitor, single point]"},
      {"smiles": "COc1ccc(-c2cc3onc(-c4c(Cl)cccc4Cl)c3c(=O)n2C)cc1", "Potency": "inactive"},
      {"smiles": "COc1ccc(/C=N/N=C2/NC(=O)C(CC(=O)O)S2)cc1OCc1ccccc1Cl", "note": "(centres undefined)", "Potency": "inconclusive: 63.1 µM [inhibitor, single point]"},
      {"smiles": "CCOC(=O)/C(C#N)=C/c1cn(CCC(=O)O)nc1-c1ccccc1", "Potency": "inactive"},
      {"smiles": "COc1ccc(C(=O)C2CCCN(C(=O)c3ccc(OC)o3)C2)c(C)c1", "note": "(centres undefined)", "Potency": "inconclusive: 28.2 µM [inhibitor, partial curve]"},
      {"smiles": "O=C(N/N=C/c1ccc(O)c(O)c1)c1cc(-c2ccccc2)nc2ccccc12", "Potency": "inconclusive: 15.8 µM [inhibitor, full curve]"}
    ]}
  ]
}
